Results reported in PubChem BioAssay AID624417 (National Center for Advancing Translational Sciences (NCATS), 2012).
“And” between values parts separate entries of the source, which are not always exact repeats. Equal values may be shown once. In all, about 410,000 compounds went through this assay and about 6,400 (1.6%) were called active. Inconclusive results, whose numbers are uncertain, are shown with a selection of clear calls. The call rests on the fitted dose curve; in most records, active means well fitted inhibition curve with a large enough effect; inconclusive means small, poorly fitted or top-dose-only effect; inactive means no such curve, though single readings can be large or run the other way. Potencies beside an inconclusive call are fits to weak or partial responses and may not hold up.
Further: nearly all actives have a fitted effect of over 55% in size.
On the % scale 0 is the no-effect control and ±100 the full control effect; potency means the concentration at half of the fitted maximal effect; tags describe the fitted curve by direction and shape.

What follows are compounds tested against Glucagon-like peptide 1 receptor (Homo sapiens) (UniProt P43220) (assay: qHTS of GLP-1 Receptor Inverse Agonists (Inhibition Mode)). Conditions: HEK293 GLP-1R CRE-luciferase, luminescence, 24 h, GLP-1R form is constitutively active; activity change, negative = inhibition: at 38.3 µM (top of the series) unless noted.
UniProt P43220, sequence (P43220 whole entry, looked up): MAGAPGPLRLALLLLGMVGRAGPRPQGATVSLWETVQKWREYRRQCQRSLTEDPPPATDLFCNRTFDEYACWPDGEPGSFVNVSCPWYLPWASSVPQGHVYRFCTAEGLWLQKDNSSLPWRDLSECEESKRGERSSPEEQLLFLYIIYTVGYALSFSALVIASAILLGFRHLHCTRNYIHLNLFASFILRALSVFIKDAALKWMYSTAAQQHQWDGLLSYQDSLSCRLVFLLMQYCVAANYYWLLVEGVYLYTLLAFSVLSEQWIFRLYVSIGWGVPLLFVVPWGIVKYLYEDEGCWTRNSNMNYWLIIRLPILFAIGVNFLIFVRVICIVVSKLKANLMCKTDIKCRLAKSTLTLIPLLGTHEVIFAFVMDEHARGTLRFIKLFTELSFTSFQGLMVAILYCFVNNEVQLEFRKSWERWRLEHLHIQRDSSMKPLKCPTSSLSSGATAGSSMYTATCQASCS
Summary of the method: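 qHTS in 1536-well format: reporter HEK293 cells expressing constitutive GLP-1R activity in DMEM + 10% Nu serum, 24 hr with compounds at 37 deg C, luminescence read after 12 min with detection reagent.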
In the case of `Cc1ccc(CN(C(=O)COc2ccc(Br)cc2)C2CCS(=O)(=O)C2)o1` (stereo not given), the Potency was inconclusive: 15.8 µM [inhibitor, partial curve, poor fit]. With `CC(/C=N/NC(=O)c1cc(-c2ccc(C)s2)[nH]n1)=C\c1ccccc1` the Potency was inconclusive: 5.62 µM [inhibitor, full curve]. With `CC(=O)Nc1ccc(NC(=O)C/C(C)=N/NC(N)=S)cc1` the Potency was inconclusive: 28.2 µM [inhibitor, single point]. For `Cc1ccc(NC(=O)C(C)n2nnc3sc4c(c3c2=O)CCCC4)cc1Cl` (stereo not given), the Potency was inconclusive: 22.4 µM [inhibitor, single point]. For `FC(F)(F)c1ccc(CN2C[C@@H]3C(c4ccc(Cl)nc4)C4(c5cccnc5)CC3(C4)[C@H]2c2ccccc2)cc1` (stereo not given in full), the Potency was inconclusive: 12.6 µM [inhibitor, single point]. `O=C(O)c1ccc(-n2c(O)c(C=C3N=c4ccccc4=N3)sc2=S)cc1` was tested, and the Potency was inconclusive: 1 µM [inhibitor, full curve, poor fit]. `Cc1cc(C(F)(F)F)nn1Cc1ccc(C(=O)NCc2ccco2)o1` was tested, and the Potency was “inactive”. In the case of `CC(C)C(NC(=O)c1ccc(C(C)(C)C)cc1)C(=O)NCc1ccccn1` (stereo not given), the Potency was inconclusive: 10 µM [inhibitor, single point]. With `CC(=O)c1ccc(Nc2nc(C(N)CCc3ccccc3)cs2)cc1` (stereo not given) the Potency was inconclusive: 10 µM [inhibitor, partial curve, poor fit]. With `CCOc1ccc(CNC(=O)c2ccc(-c3nc(CSc4ccc(C)cc4)c(C)o3)cc2)cc1` the Potency was “inactive”. With `COc1cc(CNc2ncnc3c2ncn3[C@H]2CN(Cc3cccc4ccccc34)C[C@@H](CO)O2)cc(OC)c1OC` the Potency was inconclusive: 28.2 µM [inhibitor, single point]. In the case of `CN(CC(=O)Nc1ccc(Cl)c(C(F)(F)F)c1)C(=O)Cn1cc([N+](=O)[O-])ccc1=O`, the Potency was inconclusive: 12.6 µM [inhibitor, single point]. With `CCN1CCN(c2ccc(S(=O)(=O)N3CCCCC3)cc2NC(=O)C(C)Oc2ccc(F)cc2)CC1` (stereo not given) the Potency was inconclusive: 28.2 µM [inhibitor, single point]. In the case of `O=P(C(=S)Nc1ccccc1Cl)(c1ccccc1)c1ccccc1`, the Potency was inconclusive: 5.01 µM [inhibitor, full curve, poor fit]. In the case of `Clc1ccc(-c2nnc(-c3ccccc3)c(N3CCSCC3)n2)cc1`, the Potency was inconclusive: 7.94 µM [inhibitor, partial curve, poor fit]. With `O=C1CC(N2CCOCC2)=NN1c1ccc([N+](=O)[O-])cc1` the Potency was inconclusive: 1 µM [inhibitor, full curve]. `COc1cc(/C=C2\SC(=S)N(CCCCC(=O)O)C2=O)ccc1OS(=O)(=O)c1ccc(C)cc1` was tested, and the Potency was inconclusive: 15.8 µM [inhibitor, single point]. In the case of `C=CCN(C(=O)c1csnn1)C(C(=O)NC1CCCCC1)c1ccc(C)cc1` (stereo not given), the Potency was inconclusive: 28.2 µM [inhibitor, single point]. `CCCCc1c(-c2cccc(OC)c2)ncn1CCc1ccccc1OC` was tested, and the Potency was inconclusive: 28.2 µM [inhibitor, single point]. For `CC(Cc1ccccc1)NC(=O)CC(c1ccccc1)c1ccccc1O` (stereo not given), the activity change, negative = inhibition was inconclusive: -54.1% [inhibitor]. With `C/C=C/c1ccc(OCCOc2cc(C=O)ccc2OC)c(OC)c1` the Potency was inconclusive: 28.2 µM [inhibitor, single point]. With `CC1CCC2(CC1)NC(=O)c1ccccc1O2` (stereo not given) the Potency was inconclusive: 5.01 µM [inhibitor, partial curve]. With `COc1cccc(CN2CCC2(C)C(=O)Nc2cnc3ccccc3c2)c1F` (stereo not given) the Potency was inconclusive: 28.2 µM [inhibitor, single point]. For `COC(=O)c1ccc(Cn2c(C)c(C(=O)NCc3cccc(C(F)(F)F)c3)sc2=O)o1`, the Potency was inconclusive: 3.55 µM [inhibitor, single point]. For `COC(=O)C1=C(C)N(Cc2ccccc2)C(=NCc2ccccc2)N[C@H]1c1ccccc1`, the Potency was inconclusive: 28.2 µM [inhibitor, single point]. With `CCCN1CCN(C(c2cc3cc(OCC)ccc3[nH]c2=O)c2nnnn2C2CCCCC2)CC1` (stereo not given) the Potency was “inactive”. With `O=C(O)C1CCN(c2ccc(Cl)nn2)CC1` the Potency was “inactive”. `CCCc1nc(SCC(=O)NC2CCCC2)c2ccccc2n1` was tested, and the Potency was inconclusive: 7.94 µM [inhibitor, single point]. For `CCC1(C)CC2(CCCN(CCC(O)(c3ccccc3)c3ccccc3)C2)CCO1` (stereo not given), the Potency was inconclusive: 8.91 µM [inhibitor, partial curve, poor fit]. With `C=C(C)CSc1nc(N)c(C#N)c(-c2ccc(C)cc2)c1C#N` the Potency was inconclusive: 12.6 µM [inhibitor, single point]. In the case of `COC(=O)c1c(NC(=O)CSc2nnc(CNc3ccc(Cl)cc3)o2)sc(C)c1C`, the Potency was inconclusive: 10 µM [inhibitor, partial curve, poor fit]. With `COc1cccc(CNC(=O)c2cc3n(n2)CCCN(Cc2ccc(C)cc2)C3=O)c1OC` the Potency was inconclusive: 28.2 µM [inhibitor, single point]. For `COc1ccc(-c2nc3ccc(NS(=O)(=O)c4ccccc4)cc3o2)cc1`, the Potency was inconclusive: 14.1 µM [inhibitor, single point]. With `CCN(CC)CCCNC(=O)c1cc(-c2ccc(O)cc2)on1` the Potency was “inactive”. For `Cc1ccc(C2CC(C(F)F)n3ncc(C(=O)Nc4cnn(Cc5ccccc5C)c4)c3N2)cc1` (stereo not given), the Potency was inconclusive: 28.2 µM [inhibitor, single point]. For `O=C(NCCc1ccc(F)cc1)c1n[nH]c2ccccc12`, the Potency was inconclusive: 14.1 µM [inhibitor, single point]. In the case of `C#CCN(C[C@@H]1[C@@H](OC(=O)NCc2ccco2)[C@@H](OC(=O)NCc2ccco2)Cn2c(=O)n(CCCCCC)c(=O)n21)S(=O)(=O)c1ccc(C)cc1`, the Potency was inconclusive: 11.2 µM [inhibitor, partial curve, poor fit]. With `CC/C(C)=N\Nc1nc(-c2cc3cc(OC)ccc3oc2=O)cs1` the Potency was inconclusive: 10 µM [inhibitor, partial curve, poor fit]. For `Cc1ccc(CNC(=O)Nc2ccc3c(c2)N(C)C(=O)CS3)cc1`, the Potency was inconclusive: 12.6 µM [inhibitor, single point]. `O=C1C(Cc2ccc(O)cc2)NC(=S)N1C1CCCCC1` (stereo not given) was tested, and the Potency was inconclusive: 22.4 µM [inhibitor, partial curve, poor fit]. In the case of `Cn1nccc1C(=O)N1CCCC(C(=O)c2ccc(Oc3ccccc3)cc2)C1` (stereo not given), the Potency was active: 3.55 µM. In the case of `CCc1c(C)sc(NC(=O)c2cc(-c3ccc(OC)cc3)on2)c1C#N`, the Potency was “inactive”. In the case of `CCN(CC)c1ccc(NC(=O)COc2ccc(N(C)S(=O)(=O)c3cccs3)cc2)cc1`, the Potency was inconclusive: 3.16 µM [inhibitor, partial curve, poor fit]. In the case of `O=C1c2ccsc2SCCN1Cc1ccc(Cl)cc1`, the Potency was “inactive”. With `O=C(Nc1nc(-c2ccc(-c3ccccc3)cc2)cs1)C1=COCCO1` the Potency was “inactive”. `COc1ccc(C(=O)NC2CCN(C(=S)NCCc3ccccc3)CC2)cc1` was tested, and the Potency was inconclusive: 11.2 µM [inhibitor, single point]. With `Cc1ccccc1OCc1nc(-c2ccc(NC(=O)c3ccco3)cc2)no1` the Potency was inconclusive: 10 µM [inhibitor, single point]. With `Cc1ccc(-c2nnc(N3CCC(C)CC3)c3ccccc23)cc1` the Potency was inconclusive: 22.4 µM [inhibitor, single point]. With `COc1cccc2sc3ccc(C#CC4(N)CCCCC4)cc3c(=O)c12` the Potency was inconclusive: 28.2 µM [inhibitor, single point]. With `O=C(Nc1onc2c1CCCC2)c1ccc(Cl)cc1` the Potency was inconclusive: 11.2 µM [inhibitor, single point]. For `CCN(CC)CCN(C(=O)Cn1nnc(-c2ccc(C)o2)n1)C(C(=O)NC1CCCC1)c1ccc(F)cc1` (stereo not given), the Potency was inconclusive: 28.2 µM [inhibitor, single point]. For `Cc1ccc(NC(=S)NC(=O)C2CCCCC2)c(Br)c1`, the Potency was inconclusive: 8.91 µM [inhibitor, partial curve, poor fit]. For `CCCCn1c2ccccc2c2nnc(SCC(=O)Nc3ccc(NC(C)=O)cc3)nc21`, the Potency was “inactive”. `O=C(N/N=C\c1ccc(CNS(=O)(=O)c2ccc(Cl)cc2)o1)C(=O)Nc1ccc(Oc2ccccc2)cc1` was tested, and the Potency was “inactive”. In the case of `CCOc1ccc(S(=O)(=O)NCc2cccs2)cc1C(C)C`, the Potency was inconclusive: 11.2 µM [inhibitor, partial curve, poor fit]. For `C#CCOCCOCCOCCNc1nc(N2CCN(C(=O)CCCCCCCCCCNC(=O)Cn3cc(CCCCCN)nn3)CC2)nc(N2CCN(C(=O)CCCCCCCCCCNC(=O)[C@H]([C@@H](C)CC)n3cc(CCCCN=C(N)N)nn3)CC2)n1`, the Potency was inconclusive: 28.2 µM [inhibitor, single point]. With `Cc1oc2ccc(O)c(CN(C)Cc3ccccc3)c2c1C(=O)Nc1cccc(Cl)c1C` the Potency was inconclusive: 11.2 µM [inhibitor, partial curve, poor fit]. `Cc1ccc(C2(C)NC(=O)N(CC(=O)N3CCc4ccccc43)C2=O)cc1` (stereo not given) was tested, and the Potency was inconclusive: 12.6 µM [inhibitor, single point]. `COc1ccc(-c2noc(CSc3nnc(Cc4ccccc4)n3-c3cccc(C)c3)n2)cc1OC` was tested, and the Potency was inconclusive: 28.2 µM [inhibitor, single point]. In the case of `CCOC(=O)N1CCN(C(=O)c2ccc3c(c2)N(Cc2cc(C)ccc2C)C(=O)c2ccccc2S3=O)CC1` (stereo not given), the Potency was inconclusive: 10 µM [inhibitor, single point] and inconclusive: 11.2 µM [inhibitor, single point].
